The source of these data is patent publication US10023601B2, “Hydrolysis resistant sialic acid derivatives and methods for their use” (The University of British Columbia, priority 2014, dated 2018).

Molecules are shown by their SMILES. Where a name gives a salt, the structure may show the parent alone.

This assay concerns the target Pmo188h (Pasteurella multocida, UniProt Q15KI8). The format is biochemical. As to conditions: pH 8.5.

As for `CC(=O)N[C@H]1[C@H]([C@H](F)[C@H](O)CO)O[C@](OP(=O)(O)OC[C@H]2O[C@@H](n3ccc(N)nc3=O)[C@H](O)[C@@H]2O)(C(=O)O)C[C@@H]1O` [compound 14, 5-Acetamido-3,5,7-trideoxy-2-(hydrogen 5′-cytidylate)-7-fluoro-D-glycero-b-D-galacto-2-nonulopyranosidic acid diammonium salt], the “transfer of donor to BODIPY-lactose (TLC)” value was “mostly complete”.
In the case of `CC(=O)N[C@H]1[C@H]([C@H](O)[C@H](O)CO)O[C@](OP(=O)(O)OC[C@H]2O[C@@H](n3ccc(N)nc3=O)[C@H](O)[C@@H]2O)(C(=O)O)C[C@@H]1O` [compound 16, CMP-NeuNAc, reference compound] it was “mostly complete”.
